In US9908927B2, “Single-chain trail-receptor agonist proteins” (AbbVie Inc., priority 2014, dated 2018):

Experiments:
Assay in all cases: Tumor cell viability, CellTiter-Glo
Assay type in all cases: cell-based, human
NCI-H2110 = NCI-H2110 (NSCLC), 24 hours
Protocol: (§1) Tumor cells were seeded at 10,000 cells/well in 96-well plates in the recommended media containing 10% FBS and treated with a TRAIL receptor agonist protein made up of two polypeptides having the amino acid sequence set forth in SEQ ID NO: 19 for 24 hours at 37° C. in a humidified, 5% CO2 atmosphere. Cell viability was subsequently assessed using CellTiter-Glo® reagent as described by the manufacturer's instructions (Promega; Madison, Wis.). IC50 values were determined by non-linear regression analysis of the concentration response data normalized to non-treated control cells.

NCI-H1792 = NCI-H1792 (NSCLC), 24 hours
Protocol: as §1

NCI-H1373 = NCI-H1373 (NSCLC), 24 hours
Protocol: as §1

MIA PaCa-2 = MIA PaCa-2 (Pancreatic), 24 hours
Protocol: as §1

THP-1 = THP-1 (AML), 24 hours
Protocol: as §1

SU-DHL-8 = SU-DHL-8 (NHL), 24 hours
Protocol: as §1

Toledo = Toledo (NHL), 24 hours
Protocol: as §1

SET-2 = SET-2 (AML), 24 hours
Protocol: as §1

Calu-6 = Calu-6 (NSCLC), 24 hours
Protocol: as §1

HT-1080 = HT-1080 (Fibrosarcoma), 24 hours
Protocol: as §1

HL-60 = HL-60 (AML), 24 hours
Protocol: as §1

SHI-1 = SHI-1 (AML), 24 hours
Protocol: as §1

NCI-H727 = NCI-H727 (NSCLC), 24 hours
Protocol: as §1

NCI-H596 = NCI-H596 (NSCLC), 24 hours
Protocol: as §1

Fadu-GFP = Fadu-GFP (H&N), 24 hours
Protocol: as §1

OCI-AML2 = OCI-AML2 (AML), 24 hours
Protocol: as §1

SU-DHL-16 = SU-DHL-16 (NHL), 24 hours
Protocol: as §1

NCI-H838 = NCI-H838 (NSCLC), 24 hours
Protocol: as §1

U2932 = U2932 (NHL), 24 hours
Protocol: as §1

SW48 = SW48 (CRC), 24 hours
Protocol: as §1

HEL = HEL (AML), 24 hours
Protocol: as §1

SU-DHL-4 = SU-DHL-4 (NHL), 24 hours
Protocol: as §1

NCI-H647 = NCI-H647 (NSCLC), 24 hours
Protocol: as §1

ULA = ULA (NHL), 24 hours
Protocol: as §1

HT = HT (NHL), 24 hours
Protocol: as §1

MOLM-13 = MOLM-13 (AML), 24 hours
Protocol: as §1

NCI-H847 = NCI-H847 (NSCLC), 24 hours
Protocol: as §1

BxPC3 = BxPC3 (Pancreatic), 24 hours
Protocol: as §1

OCI-Ly2 = OCI-Ly2 (NHL), 24 hours
Protocol: as §1

NCI-H1975 = NCI-H1975 (NSCLC), 24 hours
Protocol: as §1

SU-DHL-2 = SU-DHL-2 (NHL), 24 hours
Protocol: as §1

RL = RL (NHL), 24 hours
Protocol: as §1

PANC-1 = PANC-1 (Pancreatic), 24 hours
Protocol: as §1

PL-21 = PL-21 (AML), 24 hours
Protocol: as §1

HeyA8-GFP = HeyA8-GFP (Ovarian), 24 hours
Protocol: as §1

EOL-1 = EOL-1 (AML), 24 hours
Protocol: as §1

OCI-Ly1 = OCI-Ly1 (NHL), 24 hours
Protocol: as §1

NCI-H2122 = NCI-H2122 (NSCLC), 24 hours
Protocol: as §1

IC50 (NCI-H2110): 0.3142 µg/mL
IC50 (NCI-H1792): 0.06109 µg/mL
IC50 (NCI-H1373): 0.12515 µg/mL
IC50 (MIA PaCa-2): 0.158 µg/mL
IC50 (THP-1): 1 µg/mL
IC50 (SU-DHL-8): 0.00136 µg/mL
IC50 (Toledo): 1 µg/mL
IC50 (SET-2): 0.3848 µg/mL
IC50 (Calu-6): 4.757 µg/mL
IC50 (HT-1080): 0.377 µg/mL
IC50 (HL-60): 0.07662 µg/mL
IC50 (SHI-1): 1 µg/mL
IC50 (NCI-H727): 3.178 µg/mL
IC50 (NCI-H596): 0.3978 µg/mL
IC50 (Fadu-GFP): >0.003 µg/mL
IC50 (OCI-AML2): 0.12432 µg/mL
IC50 (SU-DHL-16): 0.54555 µg/mL
IC50 (NCI-H838): 0.04448 µg/mL
IC50 (U2932): 1 µg/mL
IC50 (SW48): 0.0061 µg/mL
IC50 (HEL): 1 µg/mL
IC50 (SU-DHL-4): 1 µg/mL
IC50 (NCI-H647): 0.02475 µg/mL
IC50 (ULA): 0.00844 µg/mL
IC50 (HT): 1 µg/mL
IC50 (MOLM-13): 0.7221 µg/mL
IC50 (NCI-H847): 0.01453 µg/mL
IC50 (BxPC3): 0.016 µg/mL
IC50 (OCI-Ly2): 0.01898 µg/mL
IC50 (NCI-H1975): 0.7415 µg/mL
IC50 (SU-DHL-2): 1 µg/mL
IC50 (RL): 1 µg/mL
IC50 (PANC-1): >1 µg/mL
IC50 (PL-21): 0.01067 µg/mL
IC50 (HeyA8-GFP): 0.141 µg/mL
IC50 (EOL-1): 0.01831 µg/mL
IC50 (OCI-Ly1): 0.41695 µg/mL
IC50 (NCI-H2122): 0.48055 µg/mL
B1: SEQ ID NO: 19: made up of two polypeptides of SEQ ID NO: 19; three hinge cysteines, N297S aglycosylated CH2, glycosites at positions 168 and 337 (protein)
chain: QRVAAHITGTRGRSNTLSSPNSKNEKALGRKINSWESSRSGHSFLSNLHLRNGELVIHEKGFYYIYSQTYFRFQEEIKENTKNDKQMVQYIYKYTSYPDPILLMKSARNSCWSKDAEYGLYSIYQGGIFELKENDRIFVSVTNEHLIDMDHEASFFGAFLVGGSGSGNGSRVAAHITGTRGRSNTLSSPNSKNEKALGRKINSWESSRSGHSFLSNLHLRNGELVIHEKGFYYIYSQTYFRFQEEIKENTKNDKQMVQYIYKYTSYPDPILLMKSARNSCWSKDAEYGLYSIYQGGIFELKENDRIFVSVTNEHLIDMDHEASFFGAFLVGGSGSGNGSRVAAHITGTRGRSNTLSSPNSKNEKALGRKINSWESSRSGHSFLSNLHLRNGELVIHEKGFYYIYSQTYFRFQEEIKENTKNDKQMVQYIYKYTSYPDPILLMKSARNSCWSKDAEYGLYSIYQGGIFELKENDRIFVSVTNEHLIDMDHEASFFGAFLVGGPGSSSSSSSG[human IgG1 Fc with N297S (EU numbers) not written out]
modifications: homodimer
